Hit rate of the full screen: of about 150,000 compounds, about 540 (0.36%) showed an effect of 50% or more. The list shows a part of the results.
system: Plasmodium falciparum; experiment: Primary screen in NF54 nanoGlo assay, in single point, at 2uM, 72h; a lower Z score goes with more inhibition; type: functional, Erythrocyte; details: timepoint 72 hour

SMILES	% Inhibition [%]	Z score
CC(C)(C)[C@@H](CO)NC(=O)Nc1ccn(CCC#N)n1	-12	1.55
CN(C)CC[C@H]1CCCN1C(=O)OCC(F)(F)F	1	-0.22
O=C(CN1CCCOC1=O)NC1CCCC1c1ccc(F)cc1 (stereo not drawn)	29	-3.24
CCN1CCN(C(=O)c2ccc(C)n2C(F)F)CC1=O	-11	1.42
C=CCNC(=O)CNC(=O)COc1ccccc1	-9	1.34
CNS(=O)(=O)Nc1ccc(NC(=O)C2CCOC2C(C)C)cc1 (stereo not drawn)	1	-0.08
C[C@H]1CCc2[nH]nc(C(=O)NCc3nncn3CCc3ccccc3)c2C1	-18	2.28
O=C(c1cc(C(F)(F)F)n[nH]1)N1C[C@@H]2CC[C@H]1CN(Cc1ccccn1)C2	-3	0.34
Cc1nc(CCNS(=O)(=O)CCNS(=O)(=O)c2ccccc2)cs1	-5	0.56
CCC(=O)Nc1ccc(C(=O)N2CCC3(CC2)CN(C)CCN3C)cc1	-11	2.01
c1ccc2c(c1)nnn2OCCN1CCCCC1	-7	1.06
CCCC1CC1NC(=O)NC1CCCC2OCCC12 (stereo not drawn)	5	-0.72
CC(C)c1nnc(N2CCC(c3cc[nH]n3)CC2)s1	-9	1.93
COc1ccc(NC(=O)N2CCCCC[C@@H]2CN2CCCC2)cc1	-2	0.3
COc1ccc(C)cc1C(=O)N1CCC(CCN2CCCC2=O)CC1	-8	1.52
O=C(C1CCCN(c2cccc3c2C(=O)N(CC2CCCO2)C3=O)C1)N1CCC(O)(c2cccc(C(F)(F)F)c2)CC1 (stereo not drawn)	-10	1.83
CCCN1CC[C@H](CNC(=O)Nc2cc(C)cc(N3CCN(C)CC3)c2)C1	-4	0.64
CC1CCC(O)C(C2CCCN2C(=O)NCCc2cnccn2)C1 (stereo not drawn)	-9	1.35
Cc1cc(NC(=O)N2CC[C@@H]3OCC[C@@H]3C2)ccn1	-6	1.08
O=C(Nc1ccc(Nc2ccccc2)cc1)c1ccco1	-2	0.33
COc1cc(Br)c(F)cc1S(=O)(=O)NCCNS(=O)(=O)N(C)C	-3	0.55

SMILES	% Inhibition [%]	Z score
CCCCN(C)C(=O)C1CCN(c2nnc(C)c3c(C)n(-c4ccc(Cl)cc4)nc23)CC1	16	-1.82
O=C(CN1CCN(c2cccc(Cl)c2)C1=O)NCc1ccco1	-16	1.85
COc1ccc(NC(=O)c2c(C)noc2C)cn1	11	-1.29
COC(=O)c1c(-c2cccc(Cl)c2)noc1Nc1ccc2c(c1)OCO2	-3	0.6
Cc1coc(-c2cc(NC(=O)CC(F)(F)F)ccc2C)n1	-11	1.47
COc1ccc(OC)c(CNC(=O)Cn2c(=O)nc(-c3ccccc3)c3cc(Cl)ccc32)c1	-11	1.09
C[C@@H](c1ccc(Cl)cc1)N(Cc1nc(C(=O)O)co1)C1CC1	4	-0.89
CN(Cc1ccnn1C)C(=O)c1c[nH]c(C(F)(F)F)c1	1	-0.16
Cc1cnn(C2(C(=O)O)CCN(c3cnc4ccccc4n3)CC2)c1	-7	1.11
CN1CCN(c2nc(-c3ccccc3)ns2)C[C@@]12CCOC2	-8	1.32
Cn1cc(CNc2cccc(OCCn3cccn3)c2)cn1	-7	0.84
CC(C)(NC(=O)c1ccc(-n2cnnn2)cc1Cl)C1CC1	-15	2.47
O=C(NCc1nnc(C2CC2)s1)C1C2CCCC21 (stereo not drawn)	-5	0.98
O=C(Nc1cc(-c2ccsc2)no1)c1ccc2c(c1)OCO2	-13	1.26
COc1ccccc1NC(=O)CN1CCC2(CCC(=O)N2C)CC1	-6	0.77
CC(=O)N[C@@H]1CC[C@H]2CCOc3ccccc3C(=O)N3CCN(Cc4ccncc4)C[C@H]3C(=O)NC[C@H]1O2	-14	2.31
CC(=O)NC1CN(S(=O)(=O)c2sc(C)nc2C)C1	-4	0.52
C[C@H](NS(=O)(=O)N1CCN(C)CC1)c1cccnc1	-11	2.2
Cc1noc2ncc(NC(=O)CCCn3cncn3)cc12	-5	1.07
CCN(C(=O)c1cc2c(cc1OC)CCC2)[C@H]1CCS(=O)(=O)C1	-1	0.25
c1ccc(-n2nnnc2NC2CCN(CC3CC3)CC2)cc1	-12	1.64

SMILES	% Inhibition [%]	Z score
COCc1nsc(N2CCC3(CC2)C[C@@H]3C(=O)N2CCCC2)n1	-9	1.4
CCCc1nc(CN(CC)Cc2cc(C)c(OC(C)=O)c(C)c2)no1	-9	1.25
Cc1nc(C)c(Cn2cnccc2=O)s1	6	-0.74
COc1ccc(-c2ccc3[nH]c(=O)c(C(=O)O)cc3c2)cc1	1	-0.17
CCOC(=O)c1cc(-c2ccccc2)n(-c2cccc(C(=O)NCc3ccc(OC)cc3)c2)c1C	15	-1.74
Cc1noc(C[C@H]2CCOC3(CCN(C(=O)c4ccc5ccccc5n4)CC3)C2)n1	-11	1.54
Cc1cnn(C[C@H]2CCCN2c2nccc(C(F)(F)F)n2)c1	2	-0.29
CC(C)c1nncn1CCNC(=O)c1cccc(-n2cccn2)n1	-10	0.96
COCCCNC(=O)[C@]1(C)Cn2nc(-c3ccccc3)cc2C(=O)N1Cc1ccccc1OC	4	-0.71
Cc1cc(C(=O)N2CC(C)N(CC#N)C(C)C2)ns1 (stereo not drawn)	12	-1.42
Cc1nc[nH]c1C(=O)N1CCC[C@@]2(CCC(=O)N(Cc3ccccc3)C2)C1	-13	1.96
C[C@@H]1CN(C(=O)CN2CCCn3nc(C#N)cc3C2)C[C@H](C)O1	-5	0.89
O=C(c1n[nH]c2c1CCc1ccccc1-2)N1CCCCCC1	-15	1.3
CC[C@@H](C(=O)N1CCc2cnccc21)N1CCCC1=O	-11	1.07
CN(C(=O)Cc1ccc(F)c(F)c1)c1ccc(-c2ccccc2)nn1	-14	1.64
Cc1ccc(S(=O)(=O)/N=C(\CN2CCOCC2)N2CCCN(S(=O)(=O)c3ccc(C)cc3)[C@H]2C(C)C)cc1	-3	0.41
Cc1cc(C)n(CCC(=O)N2CC(F)(F)C[C@H]2c2nc(C)no2)n1	-4	0.75
CN(CC1(C)CCOCC1)C(=O)c1ccc(Cl)s1	12	-2.01
CC1CN(C(=O)c2cc(-c3cccs3)nc3ccccc23)CC(C)O1 (stereo not drawn)	5	-0.44
COc1ccc(CCN[C@H](C(=O)NC(N)=O)C(C)C)cc1OC	1	-0.16
Cc1nc(CN[C@@H](c2cccc(F)c2)c2cccc(Cl)c2)no1	-16	2.06

SMILES	% Inhibition [%]	Z score
CC(CNC(=O)N1CCC2(CCCC2)C1)N1CCOCC1C (stereo not drawn)	-6	0.86
COc1cccc([C@@H]2CCCCN2C(=O)c2nc(N3CCCC3)nc3c2CCCC3)c1	-16	2.47
COC(=O)c1ccc(C)c(NC(=O)N(C)Cc2nc(C)c[nH]2)c1	2	-0.22
O=C(c1cc(COc2cccc3cccnc23)on1)N1CCCCCCC1	-7	0.9
CC[C@@H](NC(=O)c1ccc(C)c(B2OC(C)(C)C(C)(C)O2)c1)C(N)=O	-7	1.25
Nc1nc(CCNC(=O)[C@@H]2Cc3ccccc3C(=O)N2)cs1	5	-1.01
Cc1n[nH]c([C@H]2CCN(Cc3ccccc3C#N)C[C@H]2NC(=O)CN(C)C)n1	-17	2.25
N#Cc1ccccc1NC(=O)COc1ccc(OCc2ccccc2)cc1	-8	0.66
CCNC(=O)CNS(=O)(=O)c1c(Cl)cc(Cl)cc1Cl	-13	2.57
COc1ccc(-n2ncc(C(=O)N3CCN(C4CCCCC4)CC3)c2C2CCN(C(=O)OC(C)(C)C)CC2)cc1	-14	2.14
O=C1NC2(CCCC2)C(=O)N1Cc1ccc(-n2cccn2)cc1	-5	0.86
O=C(NCCCn1c(-c2ccc(F)cc2)nc2cccnc21)Nc1ccc(Br)cc1F	-16	1.41
CC[C@H](C)N(CC(=O)N(Cc1ccc(F)cc1)Cc1cccs1)S(=O)(=O)c1ccc2ccccc2c1	-3	0.32
Cc1ccc(NC(=O)c2c(O)c3ccccc3n(-c3ccccc3)c2=O)cc1C	-4	0.68
O=C1CCC2(CCN([C@H]3CCN(c4ccccc4)C3)CC2)CN1	-8	1.62
CCn1ncc(Cl)c1C(=O)N1N=CC[C@]1(O)C(F)(F)F	3	-0.53
C[C@H](NC(=O)CNC(C)(C)C)c1ccc(F)cc1F	-4	0.48
Cc1ccc(NC(=O)Cn2c(=O)n(C3CC3)c(=O)c3nscc32)cc1C	-8	1.06
CC1CN(C(=O)C(C)OCC2CC2)CC(C)(C)O1 (stereo not drawn)	6	-0.67
CCc1cc(-c2[nH]nc(C)c2-c2nc3ccccc3n2C)c(O)cc1O	-7	0.67
O=C(c1c[nH]nc1-c1c(F)cccc1F)N1CCc2cnccc21	6	-1.01
